In a collection of fitness landscapes (doi:10.1016/j.celrep.2020.107928):
Whole data set: some 81,000 sequences, median “one-hybrid fitness for binding NBS DNA” near -0.1, cut for the highest 2% near 0.36. The list shows a part of the results.

B1: Caulobacter ParB omega fusion; a variant is named by its letters at X, in order, B8GW30 (parent)
chain: MESVVVGEPGMSEGRRGLGRGLSALLGEVDAAPAQAPGEQLGGSREAPIEILQRNPDQPRRTFREEDLEDLSNSIREKGVLQPILVRPSPDTAGEYQIVAGERAWRAAQRAGLKTVPIMVRELDDLAVLEIGIIENVQRADLNVLEEALSYKVLMEKFERTQENIAQTIGKSXSHVANXMRLLXLPDEVQSYLVSGELTAXHARAIAAAADPVALAKQIIEGGLSVRETEALARKAPNLSAGKSKGGRPPRVKDTDTQALESDLSSVLGLDVSIDHRGSTGTLTITYATLEQLDDLCNRLTRGI

Variants of: B1
Assay: one-hybrid fitness for binding NBS DNA (the Noc-binding site; scaled: cognate 1, non-cognate 0); higher = stronger binding
Conditions: with NBS DNA site
How it was run: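 The reporter was HIS3, with the binding site 19 bp from the promoter, in E. coli USO used for bacterial one-hybrid selection of Caulobacter ParB libraries with four specificity codons randomised. Growth was on M9 lacking histidine, with 0.1 mM IPTG and 5 mM 3-AT, for 48 hours at 37°C. Illumina sequencing covered plasmids before and after selection; three replicate libraries were pooled and variants with under 10 reads dropped. A fitness score is the log change in variant-to-wild-type read ratio, rescaled to the cognate and non-cognate references.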

one-hybrid fitness for binding NBS DNA, 0.544:
QRQH

one-hybrid fitness for binding NBS DNA, 0.208:
RRMK

one-hybrid fitness for binding NBS DNA, ≤ 0.2:
YMCS
TRNV
KESF
QTGL
TPGD
TGRF
SNWL
QYLE
RYAM
VRIM
QGGT
GGRA
KGPG
TMIK
PFTQ
WQTG
TLEF
VCFE
ALAM
SARK
SAFA
QNWD
SGSL
PCVC
VDHF
NQLE
NCPF
MWEC
HRHK
CTQG
FGKF
GPTT
GVIC
WRGA
CWAS
IWSS
LRKV
DQMC
AKYA
KAAQ
ATVQ
RFSY
KQSW
PDPV
NGWN
QQYY
NIRE
SHMG
LVTA
HWFG
CFPE
RQFC
TDEM
DRKG
PAAK
WVCC
ATTW
EKTI
YPTS
ARAV
CSRM
HIWY
FYAC
GIGT
PTLN
WMVV
QIND
VVIC
SYRH
MEAG
DSDK
PHYL
RREF
GAHC
IETG
NGYD
VYAL
SWTG
SPMV
ARSS

one-hybrid fitness for binding NBS DNA, 0.394:
QHQS

one-hybrid fitness for binding NBS DNA, 0.406:
CWIG
